These results are taken from the antibiotic and cytotoxicity screens of Wong et al. (2023).

Molecules are shown by their SMILES. Some of the results follow.

In one test the test system is HSkMC. The experiment in a line: cytotoxicity call (relative viability < 0.9). To be noted: 10 µM.
Another test has as its system HepG2. The experiment in a line: cytotoxicity call (relative viability < 0.9). Particulars: 10 µM.
Another test relates to S. aureus RN4220. The experiment in a line: growth inhibition call (relative growth <= 0.2). To be noted: 50 µM.

Turning to `CC(C)CC#Cc1ccc2c(c1)O[C@@H](CN(C)C(=O)c1ccncc1)[C@H](C)CN([C@H](C)CO)S2(=O)=O`, the cytotoxicity call in the test with HSkMC and in the test on HepG2 was “inactive” in each case. Moreover, the growth inhibition call in the test on S. aureus RN4220 was “inactive”.
In the case of `Cc1ccc(S(=O)(=O)Nc2ccc3c(c2)C(=O)N([C@H](C)CO)C[C@H](C)[C@@H](CN(C)S(=O)(=O)c2cn(C)cn2)O3)cc1`, the cytotoxicity call in the test on HSkMC and with HepG2 was “inactive” throughout. Also, the growth inhibition call in the test on S. aureus RN4220 is “inactive”.
Take `COCC#Cc1cnc2c(c1)C(=O)N([C@@H](C)CO)C[C@H](C)[C@H](CN(C)C(=O)Nc1cc(F)ccc1F)O2`: the cytotoxicity call in the test on HSkMC and in the test on HepG2 was “inactive” in each case. In addition, the growth inhibition call with S. aureus RN4220 was “inactive”.
As to `COCC(=O)N(C)C[C@@H]1Oc2cc(-c3ccc(OC)cc3)ccc2S(=O)(=O)N([C@@H](C)CO)C[C@H]1C`, the cytotoxicity call in the test on HSkMC and in the test with HepG2 was “inactive” throughout. Also, the growth inhibition call with S. aureus RN4220 is “inactive”.
Regarding `Cc1noc(C)c1NC(=O)Nc1ccc2c(c1)C(=O)N([C@@H](C)CO)C[C@@H](C)[C@@H](CN(C)C(=O)NC(C)C)O2`, the cytotoxicity call with HSkMC and with HepG2 was “inactive” each time. Further, the growth inhibition call in the test on S. aureus RN4220 was “inactive”.
Regarding `C[C@@H]1CN([C@@H](C)CO)C(=O)c2cc(NC(=O)Nc3ccc(F)cc3)ccc2O[C@@H](C)CCCCO[C@H]1CN(C)CC1CCCCC1`, the cytotoxicity call in the test with HSkMC is “inactive”. In the test on HepG2, the cytotoxicity call is “active”. Also, the growth inhibition call in the test on S. aureus RN4220 is “inactive”.
In the case of `C[C@H](CO)N1C[C@H](C)[C@@H](CN(C)Cc2ccc(-c3ccccc3)cc2)Oc2c(NC(=O)CCCCCC(=O)Nc3ccccc3N)cccc2C1=O`, the cytotoxicity call in the test with HSkMC was “inactive”. Also, the cytotoxicity call in the test on HepG2 was “active”. In addition, the growth inhibition call in the test on S. aureus RN4220 is “inactive”.
On to `COCC#Cc1ccc([C@@H]2[C@H]3CN(C(=O)C4CCOCC4)CC(=O)N3[C@H]2CO)cc1`, for which the cytotoxicity call in the test with HSkMC and in the test on HepG2 was “inactive” throughout. In the test on S. aureus RN4220, the growth inhibition call is “inactive”.
As for `C[C@@H]1CN([C@H](C)CO)C(=O)Cc2cc(NC(=O)Cc3ccccc3)ccc2O[C@H]1CN(C)C(=O)Nc1ccc(C(F)(F)F)cc1`, the cytotoxicity call in the test on HSkMC and in the test on HepG2 was “inactive” in each case. Moreover, in the test on S. aureus RN4220, the growth inhibition call is “inactive”.
Turning to `OCCN1CCN(c2ncnc3c2ncn3[C@H]2CN(Cc3ccc(Cl)cc3)C[C@@H](CO)O2)CC1`, the cytotoxicity call with HSkMC and in the test on HepG2 was “inactive” throughout. Moreover, in the test on S. aureus RN4220, the growth inhibition call is “inactive”.
Regarding `Cc1cc(C(=O)Nc2cccc3c2O[C@@H](CN(C)S(=O)(=O)c2ccc(Cl)cc2)[C@@H](C)CN([C@@H](C)CO)C3=O)n(C)n1`, the cytotoxicity call in the test with HSkMC and in the test on HepG2 was “inactive” throughout. For the same compound, the growth inhibition call with S. aureus RN4220 was “inactive”.
Take `C[C@H](CO)N1C[C@H](C)[C@@H](CN(C)Cc2ccc(C(F)(F)F)cc2)Oc2ccc(NC(=O)NC3CCCCC3)cc2C1=O`: the cytotoxicity call with HSkMC and with HepG2 was “inactive” throughout. Further, in the test on S. aureus RN4220, the growth inhibition call is “inactive”.
For `C[C@H]1CN([C@@H](C)CO)C(=O)c2cc(NC(=O)Nc3ccc(C(F)(F)F)cc3)ccc2O[C@@H]1CN(C)Cc1ccccc1`, the cytotoxicity call with HSkMC and in the test with HepG2 was “inactive” in each case. Besides, in the test on S. aureus RN4220, the growth inhibition call is “inactive”.
For `N#Cc1cccnc1N1CCCNC(=O)C1`, the cytotoxicity call in the test on HSkMC and in the test on HepG2 was “inactive” throughout. Besides, the growth inhibition call in the test with S. aureus RN4220 was “inactive”.
As to `NNc1ccc2nncn2n1`, the cytotoxicity call in the test with HSkMC and in the test with HepG2 was “inactive” in each case. Moreover, the growth inhibition call with S. aureus RN4220 is “inactive”.
`C[C@H](CO)N1C[C@H](C)[C@@H](CN(C)C(=O)C2CCCCC2)OCCCC[C@H](C)Oc2ccc(NC(=O)NC3CCCCC3)cc2C1=O`: the cytotoxicity call in the test with HSkMC and with HepG2 was “inactive” throughout. In addition, the growth inhibition call in the test on S. aureus RN4220 was “inactive”.
In the case of `C[C@H](O)C#Cc1ccc2c(c1)O[C@H](CN(C)C(=O)Cc1ccccn1)[C@H](C)CN([C@H](C)CO)S2(=O)=O`, the cytotoxicity call in the test with HSkMC and in the test on HepG2 was “inactive” each time. In addition, in the test on S. aureus RN4220, the growth inhibition call is “inactive”.
With `Cc1noc(C)c1S(=O)(=O)N(C)C[C@@H]1OCCCC[C@@H](C)Oc2ccc(NC(=O)Nc3cccc4ccccc34)cc2C(=O)N([C@H](C)CO)C[C@H]1C`, the cytotoxicity call with HSkMC and in the test with HepG2 was “inactive” each time. For the same compound, the growth inhibition call in the test with S. aureus RN4220 was “inactive”.
Turning to `C[C@H](CO)N1C[C@H](C)[C@H](CN(C)C(=O)Nc2cccc3ccccc23)Oc2ccc(NS(=O)(=O)c3ccc(F)cc3)cc2CC1=O`, the cytotoxicity call with HSkMC and with HepG2 was “inactive” each time. In addition, the growth inhibition call in the test on S. aureus RN4220 is “inactive”.
Consider `Cc1ccc(S(=O)(=O)Nc2ccc3c(c2)C(=O)N([C@H](C)CO)C[C@H](C)[C@H](CN(C)C(=O)Nc2ccc(C(F)(F)F)cc2)OCCCC[C@H](C)O3)cc1`, for which the cytotoxicity call in the test on HSkMC was “inactive”. Also, the cytotoxicity call in the test on HepG2 is “active”. Besides, the growth inhibition call in the test on S. aureus RN4220 was “inactive”.
Consider `C[C@H](CO)N1C[C@H](C)[C@@H](CN(C)Cc2ccc(Cl)c(Cl)c2)OCCCC[C@H](C)Oc2ccc(NC(=O)c3ccccc3)cc2C1=O`, for which the cytotoxicity call in the test on HSkMC and in the test with HepG2 was “inactive” throughout. For the same compound, the growth inhibition call with S. aureus RN4220 was “inactive”.
On to `CCCn1c(=O)c(C#N)cn(C2CC2)c1=O`, for which the cytotoxicity call in the test on HSkMC and with HepG2 was “inactive” in each case. Also, the growth inhibition call in the test with S. aureus RN4220 was “inactive”.
As to `CC1(C)CCCC2(C)C1CCC1(C)OCCC12` (centres undefined), the cytotoxicity call in the test with HSkMC and with HepG2 was “inactive” each time. Besides, the growth inhibition call in the test on S. aureus RN4220 is “inactive”.
For `CC[N+](CC)(CC)CCOc1cccc(OCC[N+](CC)(CC)CC)c1OCC[N+](CC)(CC)CC.[I-].[I-].[I-]`, the cytotoxicity call with HSkMC and in the test on HepG2 was “inactive” each time. In addition, the growth inhibition call in the test on S. aureus RN4220 is “inactive”.
Turning to `C[C@@H]1CCCCO[C@H](CN(C)C(=O)NC2CCCCC2)[C@H](C)CN([C@@H](C)CO)C(=O)c2cc(NC(=O)CCC(F)(F)F)ccc2O1`, the cytotoxicity call in the test with HSkMC and in the test with HepG2 was “inactive” throughout. Moreover, the growth inhibition call with S. aureus RN4220 was “inactive”.
As for `C[C@@H]1CCCCO[C@@H](CN(C)S(C)(=O)=O)[C@@H](C)CN([C@H](C)CO)C(=O)c2cc(NC(=O)CCCN(C)C)ccc2O1`, the cytotoxicity call in the test on HSkMC (human skeletal muscle cells) and in the test on HepG2 was “inactive” throughout. Besides, the growth inhibition call with S. aureus RN4220 is “inactive”.
For the compound `COC(=O)c1ccc(CNC(=N)N)cc1`, the cytotoxicity call in the test with HSkMC and with HepG2 was “inactive” in each case. The growth inhibition call with S. aureus RN4220 is “inactive”.
Turning to `Cc1noc(C)c1S(=O)(=O)N(C)C[C@H]1Oc2c(NC(=O)C3CC3)cccc2C(=O)N([C@@H](C)CO)C[C@H]1C`, the cytotoxicity call with HSkMC and in the test on HepG2 was “inactive” each time. For the same compound, in the test with S. aureus RN4220, the growth inhibition call is “inactive”.
